# From publication PMC4336329 (PLoS ONE, 2015)
# About 2,200 (0.71%) of roughly 310,000 compounds showed an effect of 50% or more. Effects have a minus sign here. Some of the results follow.
# Biological target: human ether-à-go-go-related gene (hERG) potassium channel (human, UniProt Q12809)
# Assay: primary screen, population patch clamp on CHO cells stably expressing hERG
# Chain of human ether-à-go-go-related gene (hERG) potassium channel (Q12809 whole entry, looked up): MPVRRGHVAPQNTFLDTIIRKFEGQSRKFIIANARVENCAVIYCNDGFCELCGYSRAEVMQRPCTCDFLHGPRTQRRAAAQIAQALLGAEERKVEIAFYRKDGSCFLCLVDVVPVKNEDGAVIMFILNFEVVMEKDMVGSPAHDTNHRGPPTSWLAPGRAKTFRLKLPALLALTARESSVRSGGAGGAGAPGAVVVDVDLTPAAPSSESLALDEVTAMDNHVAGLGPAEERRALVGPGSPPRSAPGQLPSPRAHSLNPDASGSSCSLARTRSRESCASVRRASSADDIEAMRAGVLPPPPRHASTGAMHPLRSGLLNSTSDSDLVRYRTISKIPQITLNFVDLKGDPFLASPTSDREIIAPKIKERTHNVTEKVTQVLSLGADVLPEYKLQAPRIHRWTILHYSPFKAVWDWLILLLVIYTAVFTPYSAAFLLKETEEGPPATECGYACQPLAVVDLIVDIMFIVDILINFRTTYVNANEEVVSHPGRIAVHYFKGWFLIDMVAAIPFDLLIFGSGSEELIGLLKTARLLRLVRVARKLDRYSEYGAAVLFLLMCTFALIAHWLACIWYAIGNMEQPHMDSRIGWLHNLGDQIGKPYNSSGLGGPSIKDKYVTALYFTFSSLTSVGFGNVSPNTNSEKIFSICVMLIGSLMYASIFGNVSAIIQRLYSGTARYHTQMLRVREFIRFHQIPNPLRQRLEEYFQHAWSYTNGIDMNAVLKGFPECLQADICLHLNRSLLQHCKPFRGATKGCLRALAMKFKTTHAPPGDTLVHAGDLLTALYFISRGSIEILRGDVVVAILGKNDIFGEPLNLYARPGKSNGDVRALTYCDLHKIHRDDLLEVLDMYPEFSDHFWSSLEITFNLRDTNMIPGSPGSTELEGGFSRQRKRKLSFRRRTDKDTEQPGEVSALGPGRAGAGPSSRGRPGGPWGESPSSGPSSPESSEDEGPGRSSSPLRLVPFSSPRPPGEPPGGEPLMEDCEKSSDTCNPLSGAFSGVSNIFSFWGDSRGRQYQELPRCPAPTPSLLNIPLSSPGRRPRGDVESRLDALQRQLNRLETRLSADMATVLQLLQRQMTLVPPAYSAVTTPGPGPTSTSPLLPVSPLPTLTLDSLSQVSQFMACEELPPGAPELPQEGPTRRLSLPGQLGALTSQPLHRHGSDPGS
row,Compound,"hERG current change (%, negative = inhibition) at 1uM [%]"
1,O=C(NCCCN1CCN(c2ccc(F)cc2)CC1)Nc1ccc([N+](=O)[O-])cc1,-49.5
2,C/C(=N\NC(=O)C1CC1)c1ccc(Cl)c(Cl)c1,8.15
3,CCNC(=S)NNc1ccccc1,0.139
4,Cc1cccc2cc(C#N)c(NCCNC(=O)NC3CCCCC3)nc12,6.49
5,COc1ccc(N2C(=O)CC(NCc3ccc(F)cc3)C2=O)cc1 (stereo not drawn),12.6
6,COC(=O)c1cc(NC(=O)c2ccccc2F)cc(C(=O)OC)c1,12.9
7,CCCS(=O)(=O)N1CCN=C1SCc1cccc(F)c1,14.4
8,COc1ccccc1OCc1nnc(SCC(=O)c2cc(Cl)ccc2OC)o1,10.6
9,O=c1[nH]c(Nc2ccccn2)cc2ccccc12,7.63
10,O=C(Nc1ccc(Cl)c(Cl)c1)Nc1ccc(N2CCCC2)c(S(=O)(=O)Nc2ccccc2Cl)c1,14.9
11,Cc1nn(-c2ccccc2)c2c1C(=O)NC(=O)C(C)(C)C2,7.24
12,S=C1c2ccccc2CN1c1ccccc1,11.1
13,Cc1cccc(NC(=O)CSc2nc(=O)n(CCCN3CCOCC3)c3c2CCCC3)c1,3.53
14,COc1ccc(NC2CCCN(C(=O)CN3C(=O)c4ccccc4C3=O)C2)cc1OC (stereo not drawn),14.8
15,CC(C(=O)NCC1CCCCC1)N1CCc2ccccc2C1 (stereo not drawn),9.99
16,O=[N+]([O-])c1cccc(Cl)c1NCCNS(=O)(=O)c1ccc(Cl)cc1,-0.251
17,CCOC(=O)Cc1csc(NC(=O)NC2(C(F)(F)F)Oc3ccc(Cl)cc3O2)n1 (stereo not drawn),13.9
18,C=CCCCCCCCCC(=O)NN,18.1
19,CCSc1nc(N2CCCCC2)c2c(c1C#N)CCCC2,3.61
20,COCCN(C(=O)CNC(=O)c1cccs1)C(C(=O)NC(C)(C)C)c1ccccc1 (stereo not drawn),11.9
21,O=C(c1cc(S(=O)(=O)N2CCOCC2)ccc1F)N1CCCc2ccccc21,5.46
22,CC(NS(=O)(=O)c1cc2c3c(c1)CCC(=O)N3CCC2)c1ccccc1 (stereo not drawn),7.99
23,CC(C(=O)NC(C)(C)C)N(Cc1cccs1)C(=O)CCN1CCc2ccccc21 (stereo not drawn),7.18

row,Compound,"hERG current change (%, negative = inhibition) at 1uM [%]"
1,O=C(Nc1ccc(Cl)c(Cl)c1)C1CCN(C(=O)c2ccco2)CC1,4.86
2,CCOC(=O)CNS(=O)(=O)c1ccc2c3c(cccc13)C(=O)N2CC,20.2
3,COc1ccc(-n2cc(C#N)c(=O)n(Cc3ccc(F)cc3)c2=O)cc1,9.87
4,O=C(NCc1ccc(F)cc1)C1CCN(S(=O)(=O)c2cccc3nonc23)CC1,10.7
5,CCOC(=O)CCCN1CC(O)=C(c2nc(-c3ccc(Cl)cc3)cs2)C1=N,5.67
6,CC(C)C(=O)Nc1nnc(SCC(=O)NC2CCCC2)s1,8.03
7,COc1ccc(OS(=O)(=O)c2c(C)noc2C)cc1,6.64
8,O=C(Cc1ccccc1)N1CCN(C(=O)c2ccco2)CC1,9.62
9,COc1cccc(NC(=O)Nc2cc(C)on2)c1,22.1
10,Cc1ccc(Cl)cc1NC(=O)COC(=O)CN1C(=O)C2CCCCC2C1=O (stereo not drawn),8.8
11,O=C(CSc1nnc(-c2cccs2)n1-c1ccccc1)N1CCOCC1,4.58
12,CCCn1c(N)c(N(CCOC)C(=O)c2cc3c(s2)CCC(CC)C3)c(=O)[nH]c1=O (stereo not drawn),-4.41
13,CCn1c(NC(=O)/C=C/c2ccc(F)cc2)nc2ccccc21,15.2
14,COc1ccccc1C(=O)Nc1ccc(C)cc1C(=O)c1ccccc1,21.2
15,Cc1noc(NS(=O)(=O)c2ccc(N/C=C/C(=O)c3ccccc3)cc2)c1C,20.3
16,CCCCN(C(=O)CSc1nnc(Nc2ccc(C)c(C)c2)s1)c1c(N)n(Cc2ccccc2)c(=O)[nH]c1=O,11.2
17,C/C(=N\NC(=O)c1cccc(F)c1)c1ccc(NC(=O)Cc2ccccc2)cc1,12.8
18,O=C(COC(=O)C1CC(=O)N(Cc2ccccc2)C1)c1ccc(Br)cc1 (stereo not drawn),3.7
19,Cc1ccccc1-n1nnnc1SCC(=O)NCC1(N2CCOCC2)CCCCC1,6.3
20,COc1ccc(NS(=O)(=O)c2cc(C)ccc2C)cc1,2.77
21,CCOc1ccc(-n2c(C)cc(/C=N/N(C)C)c2C)cc1,13.4
22,COc1ccccc1CNS(=O)(=O)CCNC(=O)c1ccccc1,14.1
